Among all 140,000 compounds or so, about 240 (0.17%) were called active. The shares of active, inactive and inconclusive entries below differ from those in the screen. The call rests on the fitted dose curve; in most records, active means well fitted inhibition curve with a large enough effect; inconclusive means small, poorly fitted or top-dose-only effect; inactive means no such curve, though single readings can be large or run the other way. Potencies beside an inconclusive call are fits to weak or partial responses and may not hold up.
Experiment: Primary qHTS assay for inhibitors of alpha-synuclein gene (SNCA) expression; further: nearly all actives have a fitted effect of over 45% in size;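 on activity change, negative = inhibition: plate controls were DMSO cells for no effect and cell-free wells for full effect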
Settings: HEK-293 SNCA-luciferase knock-in, luminescence, 24 h; activity change, negative = inhibition: at 57.2 µM (top of the series) unless noted
Potency means the concentration at half of the fitted maximal effect; tags describe the fitted curve by direction and shape.

Potency, active:
COc1ccccc1CN1CCCn2nc(C)c(-c3ccccc3C(N)=O)c21 3.55 µM
Cc1ccc2nc(SCc3nc(-c4ccc(Cl)cc4)no3)[nH]c2c1 22.4 µM

Potency, inactive:
Cn1ncc2c(C(=O)N3CCCC3)cc(-c3ccc([S+](C)(=O)[O-])cc3)nc21

Potency, inconclusive:
O=C(c1cccs1)N1CC[C@H]2COC(=O)N2c2cc(F)ccc2C1 56.2 µM [inhibitor, single point]
COc1ccc(-c2noc(CC3CCN(C(=O)c4ccc(OC)nc4OC)CC3)n2)cc1 39.8 µM [inhibitor, partial curve, poor fit]
COCC(=O)NC[C@H]1CCN(Cc2ccc(OC)cc2)C[C@H]1N(C)C 25.1 µM [inhibitor, partial curve, poor fit]
COc1ccccc1CN(Cc1ccccc1OC)C[C@@H]1C=C(C)[C@H](Cc2nc3c(C)cccc3[nH]2)C[C@H]1C(C)C 35.5 µM [inhibitor, partial curve, poor fit]
Cc1cccc2nc(-c3ccccn3)c(Nc3ccc(F)cc3)n12 28.2 µM [inhibitor, partial curve, poor fit]
O=C(Nc1ccc(F)c(Cl)c1)Nc1c[nH]c(=O)[nH]c1=O 14.1 µM [inhibitor, partial curve, poor fit]
CC(CNC(=O)c1cnn(-c2ccc(F)cc2)c1-n1cccc1)c1ccccc1 (stereo unspecified) 39.8 µM [inhibitor, single point]
O=C(O)CCC(=O)N1Cc2ccccc2CC2(CCCN2CC2CCNC2)C1 (stereo unspecified) 12.6 µM [inhibitor, partial curve, poor fit]
Cc1ccc(C(=O)COC(=O)CCC(=O)Nc2ccc(Oc3ccccc3)cc2)cc1 39.8 µM [inhibitor, single point]
Cc1ccc(C(=O)N2CCc3nc(-c4ccccc4)nc(-c4ccc(Cl)cc4)c3C2)cc1 2.24 µM [inhibitor, partial curve, poor fit]
Cc1ccc(-n2ncc(C(=O)NCc3ccc4c(c3)OCO4)c2C2CCN(C(=O)OC(C)(C)C)CC2)c(C)c1 39.8 µM [inhibitor, single point]
CCn1nccc1C(=O)NCCC1CCN(C(=O)Nc2ccc(F)cc2F)CC1 8.91 µM [inhibitor, partial curve]
O=C(NCC1CCOCC1)c1ccccn1 1.58 µM [inhibitor, partial curve, poor fit]
Cc1cc(C)cc(N(CC(=O)NCCc2ccc(Cl)cc2)S(=O)(=O)c2c(C)noc2C)c1 22.4 µM [inhibitor, single point]
Cc1cccc(C(=O)NCC2CCCCC(=O)N2)c1 (stereo unspecified) 39.8 µM [inhibitor, single point]
CCc1cccc(NC(=O)CN2C(=O)NC(c3ccc(C)cc3)C3=C2COC3=O)c1 (stereo unspecified) 1.78 µM [inhibitor, partial curve, poor fit]
COCCNC(=O)[C@@H]1C[C@H](Oc2cccnc2)CN1C(=O)c1cnccc1C 12.6 µM [inhibitor, partial curve, poor fit]
COc1ccc(Br)cc1Cn1nnc(C(=O)Nc2cccc(SC)c2)c1N 39.8 µM [inhibitor, single point]
COc1cccc(CC(=O)N2CCOCCNC(=O)[C@@H]3CCC[C@@H]32)c1 8.91 µM [inhibitor, single point]
COCCOCC(=O)N1CC(c2nnc(-c3ccncc3)o2)C2(CCOCC2)C1 (stereo unspecified) 2.51 µM [inhibitor, partial curve, poor fit]
COc1ccc(C(=O)N[C@@H]2CCC[C@@H]2C(=O)N2CCOCC2)cn1 7.08 µM [inhibitor, partial curve]
O=C(NCC1CCCO1)c1ccc(Cn2ccn3nc4c(c3c2=O)CCCC4)cc1 (stereo unspecified) 39.8 µM [inhibitor, single point]
COCCCNC(=O)N1CCc2nn(CC3CC3)c(=O)n2CC1 39.8 µM [inhibitor, single point]
CCOC(=O)COc1ccc([N+](=O)[O-])cc1-c1ccnc2cc(-c3ccc(Cl)cc3)nn12 11.2 µM [inhibitor, partial curve, poor fit]
CCc1nc(-c2c3n(c(=O)n(Cc4cccc(C#N)c4)c2=O)CCCCC3)no1 28.2 µM [inhibitor, single point]
COC1C(=O)N(C2CCN(Cc3cn(C)c4ccccc34)CC2)C12CCOCC2 (stereo unspecified) 39.8 µM [inhibitor, single point]
NC(=O)C1(N2CCCCC2)CCN(C(=O)c2cc3n(n2)CC(c2ccc(Cl)cc2)OC3)CC1 (stereo unspecified) 1 µM [inhibitor, full curve]
COCCNC(=O)[C@@H]1C[C@@H](O)CN1C1CCN(C(=O)c2ccco2)CC1 31.6 µM [inhibitor, single point]
O=C(NC1CCCN(c2cc(-c3ccccc3)[nH]n2)C1)c1cc(F)ccc1F (stereo unspecified) 39.8 µM [inhibitor, single point]
CC(C)(C)C1CCC2(CC1)NC(=O)N(CC(=O)NCc1ccccc1F)C2=O (stereo unspecified) 39.8 µM [inhibitor, single point]
Cn1ncc2c(C(=O)NCC(F)F)cc(-c3ccc(Cl)nc3)nc21 10 µM [inhibitor, partial curve, poor fit]
COC1CCOC2(CCN(C(=O)Cn3c(=O)oc4ccccc43)CC2)C1 (stereo unspecified) 11.2 µM [inhibitor, single point]
O=C(N[C@@H](CO)c1ccccc1)c1cc(COc2cccc(F)c2)[nH]n1 6.31 µM [inhibitor, full curve, poor fit]
CC(C)(C)c1ccc(C(=O)N(Cc2ccc(F)cc2)Cc2ccco2)cc1 39.8 µM [inhibitor, single point]
Cc1noc(C)c1[S+](=O)([O-])N1CCC(c2nn(-c3ccc(F)cc3)c(=O)[nH]2)CC1 1.26 µM [inhibitor, full curve, poor fit]
Cc1cc(C(=O)N2CCc3nn(Cc4ccccc4)c(=O)n3CC2)nn1C 1.26 µM [inhibitor, partial curve, poor fit]
CCn1cc2nc(SCc3ccc(F)cc3)n(CCc3ccccc3)c(=O)c2n1 39.8 µM [inhibitor, single point]
CCN(CCCNC(=O)c1ccc(Sc2ccc(Cl)cc2)c(NC(C)=O)c1)c1ccccc1 39.8 µM [inhibitor, single point]

Activity change, negative = inhibition, inactive:
COc1ccc(C(=O)N2CCCN(c3cc(-c4ccc(OC)cc4)[nH]n3)CC2)cc1 6.22%
O=C(O)CN1C(=O)[C@@H]2C[C@@H](CN2C(=O)c2ccccc2)Oc2ccccc21 -3.26% [at 87.6 µM]
CC(C)c1cccc(NC(=O)C2CCN(C(=O)c3ncn4c3COC(c3ccc(F)cc3)C4)CC2)c1 (stereo unspecified) -14.2%
CC(C)(Oc1nn(Cc2cccc(Cl)c2)c2ccccc12)C(=O)NCC1CCOCC1 -24.5%
COc1ccc(S(=O)(=O)NC[C@@H]2C=C(C)[C@H](CC(=O)N(C)Cc3cccnc3)C[C@H]2C(C)C)cc1 -1.01%
CC(=O)NCC(=O)N1CCCC(C(=O)Nc2cccc(-c3ccc(F)cc3)c2)C1 (stereo unspecified) 2.9%
O=C([C@H]1CCCN1C(=O)c1cccc(Cl)c1)N1CCCC(c2nc3ccncc3[nH]2)C1 (stereo partly specified) -10.7%
COc1ccc(CN2CC3(CCN(C(=O)Nc4cccc(C(F)(F)F)c4)CC3)C2=O)cc1 6.23%
Cn1ncc2c(C(=O)NCc3cccc(Cl)c3)cc(-c3ccsc3)nc21 -12.4%
COc1cccc(-c2ncc3c(n2)OCCN(Cc2ccccc2)C3=O)c1 14.1% [at 87.6 µM]
CCN1c2cc(C(=O)Nc3ccc(C(N)=O)cc3)ccc2C(=O)N2CCCCCC21 (stereo unspecified) 22.5%
CC(=O)N1CCC2(CC1)CC(CC(=O)Nc1cccc(F)c1)CCO2 (stereo unspecified) 7.79%
Cc1ccc(CNC(=O)C2CCCCC(=O)N2Cc2ccccc2)cc1 (stereo unspecified) 7.27%
Cc1ccc(C(=O)N2CCCCCCNC(=O)[C@@H]3C[C@@H](c4nc(Cc5ccccc5)no4)C[C@@H]32)s1 2.54%
CN(C)C[C@@H]1CN(c2ncccn2)C[C@H]1NS(=O)(=O)c1cc(F)ccc1F 0.0265%
Cc1ccc(C2c3cc(OCc4nc(C(=O)N5CCCC5)co4)ccc3CCN2C(=O)C2CC2)cc1 (stereo unspecified) -9.73%
O=C(NCc1ccc(C(F)(F)F)cc1)[C@@H]1Cc2nc[nH]c2CN1Cc1ccc([N+](=O)[O-])cc1 2.08%
COc1cc(=O)n2c(c1C(=O)NCc1cccc(C(F)(F)F)c1)CCCC2 -0.675%
COc1ncccc1-c1ncc2c(n1)OCCN(c1ccccc1)C2=O 1.99% [at 87.6 µM]
COc1ccc(NC(=O)c2cc3c(=O)[nH]c(C)cn3n2)cc1OC 65.7%
O=C(Cc1c[nH]c2ncc(-c3ccccc3)cc12)Nc1ccc(C(F)(F)F)cc1 -15.7% [at 87.6 µM]
COc1ccc(-c2ccnc(N[C@H]3CO[C@H]4[C@@H]3OC[C@H]4OCC(=O)N(C)C)n2)cc1 -7.24% [at 87.6 µM]
COc1cccc(NC(=O)Cn2nc3c(cc2=O)CN(C(C)=O)CC3)c1 24.4%
O=C(C1CC1)N1CCC(Cc2nc(C3CCOCC3)no2)CC1 28.5%
O=C(C1CCCCC1)N1CCC2(CC1)CC(Cc1nc(-c3cnccn3)no1)CCO2 (stereo unspecified) 6.32%

Reference: PubChem BioAssay AID1671194 (National Center for Advancing Translational Sciences (NCATS), 2021)
